According to PubChem BioAssay AID1030 (National Center for Advancing Translational Sciences (NCATS), 2008):
About 16,000 (7.3%) of roughly 220,000 compounds were called active. Inconclusive results, whose numbers are uncertain, are shown with a selection of clear calls. Calls come from the whole dose curve; as a rule, active = well fitted inhibition curve with a large enough effect (not every such curve was filed as active); inconclusive = small, poorly fitted or top-dose-only effect, or another doubt; inactive = no such curve, though single readings can be large or run the other way. Potencies of inconclusive entries are left out as doubtful fits.

target: Aldehyde dehydrogenase 1A1 (Homo sapiens) (UniProt P00352); assay: qHTS Assay for Inhibitors of Aldehyde Dehydrogenase 1 (ALDH1A1); conditions: Purified ALDH1A1, NADH fluorescence, propionaldehyde substrate; series mostly up to 75.3 µM
UniProt P00352, sequence (P00352 whole entry, looked up): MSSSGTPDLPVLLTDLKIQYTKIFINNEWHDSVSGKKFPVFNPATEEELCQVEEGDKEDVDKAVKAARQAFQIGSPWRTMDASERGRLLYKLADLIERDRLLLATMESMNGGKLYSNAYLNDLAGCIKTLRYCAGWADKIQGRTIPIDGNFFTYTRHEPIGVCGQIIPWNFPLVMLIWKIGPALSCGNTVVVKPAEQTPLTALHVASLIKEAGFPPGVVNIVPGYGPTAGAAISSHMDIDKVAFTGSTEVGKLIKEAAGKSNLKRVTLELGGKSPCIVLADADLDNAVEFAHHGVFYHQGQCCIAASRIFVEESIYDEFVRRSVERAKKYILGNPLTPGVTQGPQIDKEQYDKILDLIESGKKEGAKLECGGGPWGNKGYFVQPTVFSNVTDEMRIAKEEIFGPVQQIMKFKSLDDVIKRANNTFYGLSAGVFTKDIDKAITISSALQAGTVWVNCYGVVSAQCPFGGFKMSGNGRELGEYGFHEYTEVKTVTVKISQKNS
Potency is the fitted concentration of half-maximal effect; tags give direction and shape of the fitted curve.

Row | Compound | Potency
1 | Cn1c(N)c(C(=O)COC(=O)COc2ccccc2C#N)c(=O)n(C)c1=O | inactive
2 | O=C(COc1ccc(F)cc1Br)N1CCN(S(=O)(=O)/C=C/c2ccccc2)CC1 | inconclusive [inhibitor, partial curve]
3 | O=C(O)CCCC[C@@H]1CCSS1 | inactive
4 | CC(=O)Oc1ccc(OC(C)=O)c(SCCCCCN2CCOCC2)c1 | inactive
5 | COc1ccccc1CNc1ncnc2ccc(-c3ccccc3OC)cc12 | inconclusive [inhibitor, single point]
6 | CCOc1cc(CNCCCN2CCOCC2)cc(Br)c1OCc1ccccc1Cl | inactive
7 | CCCCNc1nc2ccccc2nc1Cl | inactive
8 | COc1cc(C(=O)O)nc2ccc([N+](=O)[O-])cc12 | inconclusive [inhibitor, single point]
9 | Cc1ccc(C2C(C(=O)c3sc(C)nc3C)=C(O)C(=O)N2CCN(C)C)o1 (stereo not given) | inconclusive [inhibitor, single point]
10 | Cc1ccccc1NS(=O)(=O)c1ccc2c(c1)n(C)c(=O)n2C | inconclusive [inhibitor, full curve]
11 | O=C(Nc1cccc([N+](=O)[O-])c1)C1CC(=O)N(C2CCCCC2)C1 (stereo not given) | inconclusive [inhibitor, single point]
12 | O=C(CSc1nc(-c2ccco2)cc(C(F)(F)F)n1)Nc1ccccc1C(F)(F)F | inactive
13 | COCCn1nnnc1C(c1cccs1)N1CCN(c2cccc(C(F)(F)F)c2)CC1 (stereo not given) | inconclusive [inhibitor, single point]
14 | O=C(Nc1ncccc1Cl)C(Sc1ccccc1)c1ccccc1 (stereo not given) | inactive
15 | CC(Sc1n[nH]c(N)n1)C(=O)C12CC3CC(CC(C3)C1)C2 (stereo not given) | inconclusive [inhibitor, single point]
16 | COc1ccc(-c2cc(C(=O)OCC(=O)N(C)C)c3ccccc3n2)cc1 | inconclusive [inhibitor, partial curve]
17 | COc1ccc(CN(C#N)c2nc(SC)nc(N(C)C)n2)cc1 | inconclusive [inhibitor, partial curve]
18 | COC(=O)c1ccc(NC(=O)c2ccccc2)o1 | inactive
19 | Cc1nn(-c2ccccc2)c2c1C(c1ccccc1)C(C#N)=C(N)O2 (stereo not given) | active: 3.55 µM
20 | CCC(N=c1cc(-c2ccc(OC)c(OC)c2)oc2ccc(C)cc12)C(=O)O (stereo not given) | inconclusive [inhibitor, single point]
21 | Cc1cccc(-c2n[nH]c(=S)n2Cc2ccccc2)c1 | inconclusive [inhibitor, partial curve]
22 | Cc1cc(S(=O)(=O)N2CCN(c3ccccc3O)CC2)c(C)s1 | inconclusive [inhibitor, single point]
23 | CCOC(=O)CSc1nnc(CNC(=O)c2ccc(S(=O)(=O)N3CCOCC3)cc2)n1C | inactive
24 | Cc1ccccc1C(=O)c1c[nH]c(C(=O)NCCc2ccccn2)c1 | active: 22.4 µM
25 | Clc1ccc(OCc2nnnn2-c2ccccc2)cc1 | inconclusive [inhibitor, partial curve]

Row | Compound | Potency
26 | COc1ccc(OC)c(S(=O)(=O)N2CCC(C(=O)NCc3ccccc3OC)CC2)c1 | inconclusive [inhibitor, single point]
27 | CC(=O)C(=Cc1cn(-c2ccccc2)nc1-c1ccccc1)C(C)=O | inconclusive [inhibitor, partial curve]
28 | CCOC(=O)N1CCC(N2C(=O)c3ccccc3C2Nc2ccc(S(=O)(=O)N3CCCCC3)cc2)CC1 (stereo not given) | active: 25.1 µM
29 | COc1ccc(-c2nnc(SCC(=O)NC(=O)NCc3ccco3)o2)cc1 | active: 22.4 µM
30 | Cc1ccc(C(=O)N/C(=C\c2ccc(Br)cc2)c2nc(=S)[nH][nH]2)cc1 | inconclusive [inhibitor, single point]
31 | Cc1cccc(Nc2ccncc2S(=O)(=O)NC(=O)NC(C)C)c1 | inactive
32 | COc1ccc(C(=O)N2CCC[C@@]3(CCN(c4ncccn4)C3)C2)cc1 | inconclusive [inhibitor, single point]
33 | CCOC(=O)C1CCCN(C2CC(=O)N(c3ccc(N4C(=O)CC(N5CCCC(C(=O)OCC)C5)C4=O)cc3)C2=O)C1 (stereo not given) | active: 3.16 µM
34 | Cc1ccccc1Cn1ccc(-c2ccc(Cl)cc2)c(C#N)c1=O | inconclusive [inhibitor, single point]
35 | COc1ccc(C(=O)NCC(=O)OCC(=O)N2N=C(c3ccc(Cl)cc3)CC2c2ccco2)cc1OC (stereo not given) | inconclusive [inhibitor, single point]
36 | CCOc1cc(C2C(C(=O)c3ccco3)=C(O)C(=O)N2CCc2ccccc2)ccc1O (stereo not given) | inactive
37 | CC(c1ccccc1)N1C(=O)c2ccc(C(=O)NCc3ccco3)cc2C1=O (stereo not given) | inconclusive [inhibitor, single point]
38 | Cc1ccnc(NC(=O)c2ccc3c(c2)OCO3)c1 | inactive
39 | COC(CNS(=O)(=O)c1ccc(S(=O)(=O)N2CCCC2)cc1)OC | inconclusive [inhibitor, single point]
40 | COc1ccccc1NC(C)C(=O)Nc1ccc(C(C)=O)cc1 (stereo not given) | inconclusive [inhibitor, single point]
41 | COc1ccc(C(=O)C2CCN(C(=O)c3ccc(C)cc3)CC2)cc1 | active: 5.01 µM
42 | O=C(c1cc(C(F)(F)F)cc(C(F)(F)F)c1)N1CCC2(CCCN(c3ncccn3)C2)CC1 | inactive
43 | O=S(=O)(N1CCCCC1)N1CCN(CC(O)COc2ccc3cc(Br)ccc3c2)CC1 (stereo not given) | inconclusive [inhibitor, single point]
44 | COc1ccc(N(C(=O)c2ccccc2C)S(=O)(=O)c2cccs2)cc1 | active: 11.2 µM
45 | CCN=C1SC(CC(=O)NC2CCCCC2)C(=O)N1CC (stereo not given) | inconclusive [inhibitor, single point]
46 | O=c1c(CCc2ccccc2)nc2cnc(Nc3ccccc3)nc2n1Cc1cccs1 | inactive
47 | CCn1nc(NC(=O)c2ccco2)c2cc3ccc(C)cc3nc21 | inconclusive [inhibitor, single point]
48 | Cc1ccc(-n2ncc3c(N4CCCC4)ncnc32)c(C)c1 | inactive
49 | O=C(CSCc1ccc([N+](=O)[O-])cc1)N/N=C/c1cccnc1 | inconclusive [inhibitor, single point]
50 | Cc1ccc(S(=O)(=O)NC(c2ccccc2)C(C)C(=O)n2nc(C)cc2C)cc1 (stereo not given) | inconclusive [inhibitor, single point]

Row | Compound | Potency
51 | CCCS(=O)(=O)N1CCCC(C(=O)NCCc2ccc(OC)c(OC)c2)C1 (stereo not given) | inactive
52 | Cc1ccc(NNC(=O)c2c(C)noc2C)cc1Cl | active: 28.2 µM
53 | O=C(CN1CCCCC1CO)c1ccc(OC(F)F)cc1 (stereo not given) | inconclusive [inhibitor, single point]
54 | O=S(=O)(Cc1ccccc1Cl)N1CCCC1 | inconclusive [inhibitor, single point]
55 | COCCNC(=O)CNC(=O)c1nn(-c2ccc(OC)c(Cl)c2)c(=O)c2ccccc12 | inactive
56 | Fc1ccccc1COc1ccc(Br)cc1CNCC1CCCO1 (stereo not given) | inactive
57 | S=c1[nH]ccn1Cc1ccccc1 | inconclusive [inhibitor, single point]
58 | CC(=O)c1cccc(NC(=O)C2CCCCC2)c1 | active: 8.91 µM
59 | O=C(c1ccco1)N1CCCN(Cc2nc(-c3ccc4c(c3)OCO4)no2)CC1 | active: 22.4 µM
60 | COc1cccc(/C=N/NC(=O)CN(CCc2ccccc2)S(=O)(=O)c2ccc(NC(C)=O)cc2)c1 | inconclusive [inhibitor, partial curve]
61 | CC(C)Sc1nc(N2CCOCC2)c2c(c1C#N)CC(C)(C)N(C)C2 | inconclusive [inhibitor, single point]
62 | CC1(C)CC(=O)C=C(Nc2ccc(S(N)(=O)=O)cc2)C1 | inconclusive [inhibitor, single point]
63 | COc1cc(C2NC(=S)NC(C)=C2C(=O)c2ccccc2)ccc1O (stereo not given) | inconclusive [inhibitor, partial curve]
64 | Cc1ccc2nc(-c3cccc(S(=O)(=O)N(C)C)c3)cn2c1 | inconclusive [inhibitor, partial curve]
65 | CC(C)c1c(O)nc(SCC(=O)Nc2ccc3c(c2)CCC3)[nH]c1=O | inconclusive [inhibitor, single point]
66 | O=C(O)CCc1nn2c3ccccc3n(CC(=O)O)c2nc1=O | inconclusive [inhibitor, single point]
67 | COc1ccc(/C=C2\Cc3ccccc3C2=O)cc1OC | inconclusive [inhibitor, single point]
68 | CN(C)Cc1ccccc1-c1nc(NC2CC2)c2ccccc2n1 | inactive
69 | O=C(Cc1ccccc1)Nc1ccccc1Sc1ccccc1 | inconclusive [inhibitor, single point]
70 | COc1cc(NC(=O)CCN2CCN(c3ccccc3F)CC2)cc(OC)c1 | inactive
71 | CCn1c(CSc2nc3ccccc3s2)nc2ccccc21 | inconclusive [inhibitor, single point]
72 | Cc1ccccc1N(C(=O)Cn1nnc(-c2cccs2)n1)C(C(=O)NCCC(C)C)c1ccco1 (stereo not given) | inactive
73 | CC(C)n1c(SCC(N)=O)nc2c1c(=O)[nH]c(=O)n2C | active: 22.4 µM
74 | N#Cc1c(NC(=O)CN2CCCCC2)sc2c1CCC2 | inactive
75 | COc1ccc(O[C@H]2C=C[C@@H](c3ccccc3)O[C@@H]2COC(=O)CC/C(C)=N/O[C@H](C)c2cn([C@@H]3COC[C@H]3O)nn2)cc1 | inconclusive [inhibitor, single point]
